Test results taken from PubChem BioAssay AID720542 (National Center for Advancing Translational Sciences (NCATS), 2013).
About 740 (0.21%) of roughly 360,000 compounds were called active. Inconclusive means that the source gave no clear call. Such entries were picked first, then a sample of the others. Calls follow the shape of the dose curve; as a rule, active = well fitted inhibition curve with a large enough effect; inconclusive = small, poorly fitted or top-dose-only effect; inactive = no such curve, though single readings can be large or run the other way. No potency is given beside an inconclusive call; the fits are too rough.
Also: nearly all actives have a fitted effect of over 45% in size.
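For activity change, negative = inhibition in this document: 0% = vehicle wells and -100% = peptide control.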
Potency is read from the fitted curve at half-maximal effect; tags tell the direction and shape of the fitted curve.

What follows are compounds tested on Plasmodium falciparum AMA1 (3D7) - RON2 peptide interaction (assay: qHTS for Inhibitors of AMA1-RON; Towards Development of Antimalarial Drug Lead: Primary Screen). Settings: AlphaScreen AMA1-biotinylated RON2 peptide binding; activity change, negative = inhibition: at 58.2 µM (top of the series) unless noted.
Outline: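 AMA1 (3D7) with his tag at 25 nM final met compounds first, then biotinylated RON2 peptide at 25 nM; detection used donor plus acceptor beads, 10 µg/mL apiece, read by AlphaScreen after 30 min at room temperature.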
With `CCN(CC)C(=O)C1CCC(C)(C(=O)O)C1(C)C` (centres undefined) the Potency was inconclusive [inhibitor, full curve, poor fit]. With `C=CCN1C(=O)/C(=C/c2ccc(OC(C)=O)c(OCC)c2[N+](=O)[O-])SC1=S` the Potency was inconclusive [inhibitor, single point]. `O=[N+]([O-])c1cc(Br)c(Nc2ccccc2)c([N+](=O)[O-])c1` was tested, and the Potency was active: 25.1 µM. With `O=C(c1cc(COc2ccc(F)cc2Cl)on1)N1C[C@H]2CC[C@H]1C2` the activity change, negative = inhibition was inconclusive: 6.03% [inhibitor]. In the case of `CCN(Cc1ccccc1)C(=O)c1cc(S(=O)(=O)N2CCOCC2)cn1C`, the Potency is reported as “inactive”. For `O=C1C2=C(CCCC2)C(=O)N1c1cccc(OCCBr)c1`, the Potency was “inactive”. With `c1nc(Nc2ccc(N3CCOCC3)cc2)c2ccsc2n1` the Potency was inconclusive [inhibitor, partial curve, poor fit]. `COc1ccccc1N(C)S(=O)(=O)c1ccc(Cl)c(C(=O)NCc2ccco2)c1` was tested, and the Potency was “inactive”. For `COc1ccc(C)cc1NC(=O)c1cccc(-c2ccc(OC(C)=O)cc2)c1`, the Potency was “inactive”. `COC(=O)Cn1c(=O)c2c(nc(Br)n2Cc2ccccc2Cl)n(C)c1=O` was tested, and the activity change, negative = inhibition was inconclusive: -8.38% [inhibitor]. With `O=C(c1cccs1)N1CCN=C1SCc1ccccc1F` the Potency was “inactive”. With `C=CCNCCCCOc1cccc(Br)c1` the Potency was inconclusive [inhibitor, full curve, poor fit]. In the case of `COc1ccc(C2/C(=C(\O)c3cccc(OC)c3)C(=O)C(=O)N2c2ccccn2)cc1` (centres undefined), the Potency is reported as “inactive”. With `NC(=O)N1CCN(CCCN2c3ccccc3Sc3cc(Cl)ccc32)CC1` the Potency was inconclusive [inhibitor, single point]. `O=C(CNC1CCCC1)Nc1ccc(N2CCCCCC2)cc1` was tested, and the Potency was inconclusive [inhibitor, partial curve]. `C#CCOCCOCCOCCNc1nc(N2CCN(C(=O)[C@H](Cc3cc4ccccc4[nH]3)n3cc([C@@H](N)Cc4ccc(O)cc4)nn3)CC2)nc(N2CCN(C(=O)[C@H](Cc3cc4ccccc4[nH]3)n3cc([C@@H](N)CC(C)C)nn3)CC2)n1` was tested, and the Potency was inconclusive [inhibitor, partial curve]. In the case of `CC(Nc1nc(N2CCN(CCO)CC2)nc2ccccc12)c1ccccc1` (centres undefined), the Potency is reported as inconclusive [inhibitor, single point]. `COc1ccccc1CNCC(=O)Nc1ccc(N(C)C)cc1` was tested, and the Potency was inconclusive [inhibitor, single point]. `Cc1ccccc1-c1cccc([C@@H]2C[C@H]3[C@H](CON3C)CN2S(=O)(=O)c2ccccc2C)c1` was tested, and the Potency was inconclusive [inhibitor, partial curve].
